Variants at the background level are over-represented here.
B1: TPR 5TU (parent)
chain: GGAUCUUCUCGAUCUAACAAAAAAGACAAAUCUGCCACAAAGCUUGAGAGCAUCUUCGGAUGCAGAGGCGGCAGCCUUCGGUGGCGCGAUAGCGCCAACGUUCUCAACUAUGACACGCAAAACGCGUGCUCCGUUGAAUGGAGUUUAUCAUG

Variants of: B1
Assay: polymerase ribozyme fitness, log enrichment relative to wild type (log ratio); higher = more active; in vitro selection for triplet polymerase activity
Procedure, shortened: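 The heterodimeric triplet polymerase ribozyme's subunits were each mutagenized into PCR-built libraries and transcribed. Every library was selected once, in triplicate, by annealing with a biotinylated primer, the partner subunit and triplets, incubating frozen at −7 °C, gel-excising extended constructs, capturing on streptavidin beads and running RT-PCR. Input and output libraries were Illumina-sequenced, with genotypes kept only at ≥10 input reads and ≥1 read per output. Fitness, from inverse-variance-weighted replicate averages, is the base-2 logarithm of genotype enrichment over wild-type enrichment.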

| Variant | polymerase ribozyme fitness (log ratio) |
| --- | --- |
| U4G G80C G86U | ≤ -4.2 |
| C5A A29U C57U G58C C87G A91G A137C U148C | ≤ -4.2 |
| U4G U33G U55C C76U G86U C105A C116U | ≤ -4.2 |
| U4G C75G C85A | ≤ -4.2 |
| U4G A20U G67A C103G | ≤ -4.2 |
| C5U A28G G42A G59C G70C C72U C87U C93A G94A | ≤ -4.2 |
| C5G U13A A23U A52C C87A C105U A107G | ≤ -4.2 |
| C5G U6C A47U G50C C85U C99U G117A G136U | ≤ -4.2 |
| U4G C57U G59C C69A G84C C85A | ≤ -4.2 |
| U4G A22U A37C C95A C96A U127G | ≤ -4.2 |
| U4C G88C U104A A107G | ≤ -4.2 |
| C5A C38U C57A C108G U148G | ≤ -4.2 |
| U4A U45A G74A U78A U90G A98G A122U | ≤ -4.2 |
| C5G U44A C85U G112A A122G | ≤ -4.2 |
| U4G A24C A26C G81C G92C A98U C114A G141C | ≤ -4.2 |
| C5A C57G C72U A73U G80C C93G A110U | ≤ -4.2 |
| U4C C10G A28C A49C G86A C99G U104G | ≤ -4.2 |
| C5G C10U U44G G84A C129U G143C | ≤ -4.2 |
| C5G C35U G80U C95U U104A | ≤ -4.2 |
| C5G G11A A73G C76U | -2.17 |
| U4A A17U A20G C36G C43U C76A G81C | ≤ -4.2 |

| Variant | polymerase ribozyme fitness (log ratio) |
| --- | --- |
| U4G C87A | ≤ -4.2 |
| C5A A17U A24U A26U G50C G140C | ≤ -4.2 |
| U4G U31A U53A A73G U101A | ≤ -4.2 |
| C5G A12C A40U G58C G83U C118G | -3.96 |
| C5A G67C C103A G141U A150C | ≤ -4.2 |
| U4G A60U A64G G68A C93A G140C G143A | ≤ -4.2 |
| U4C A17G C18A C57A G59A G68A C96A A107U A121U C123G | ≤ -4.2 |
| U4G C85G C93G G94A C96A C114U | ≤ -4.2 |
| U4G U13A G42C U55G C63U C85G U111G C114A | ≤ -4.2 |
| C5G A12C G94U C149A | ≤ -4.2 |
| C5G A20U C35U G50U C93U | -3.76 |
| C5G C54G U56A C87U C93A C132A | ≤ -4.2 |
| C5A A17G A19C A29G A30G C54G G94C A122U G128A U134G | ≤ -4.2 |
| C5G U13A C87A C116U | ≤ -4.2 |
| C5A A17U C35U G71C G84U C125A A138G | ≤ -4.2 |
| U4G A23U A97G | ≤ -4.2 |
| U4C G11U G42C G48A U53G C57G G81U C85U | ≤ -4.2 |
| U4C U44C A47G G83A A97G A107G A110C C114G | ≤ -4.2 |
| C5G C14G C27U G84U A110G | ≤ -4.2 |
| C5A G68A G92A | ≤ -4.2 |
| U4G U44G G94A C105G C118U U127A G128A U135G A137U | ≤ -4.2 |

| Variant | polymerase ribozyme fitness (log ratio) |
| --- | --- |
| C5G G46U G81U C87U G88A A98U C125U | ≤ -4.2 |
| C5G C27U C32A A41U G86C | ≤ -4.2 |
| U4G U31C C38U C131G U144C | ≤ -4.2 |
| C5G C10G U13C U56A C96A U102G A110U | ≤ -4.2 |
| C5G C69A C85U C93U | ≤ -4.2 |
| C5A G50A G59U G71U A73C C95A C108G | ≤ -4.2 |
| U4G A29C C75A C96U A115U U148A | -3.99 |
| U4G U15C A41C A64G A66G U134G | ≤ -4.2 |
| U4C G62U A115U U144A | ≤ -4.2 |
| C5U C27G C75G C87A C95A C99A U127A A138U G140C | ≤ -4.2 |
| C5U C8G A137U U145A A147C | ≤ -4.2 |
| C5A C8G A21U C54G C57U G58A C69A G81A A115U G133C G143U | ≤ -4.2 |
| U4G A37C C93U A147U C149G | ≤ -4.2 |
| C5G A20G A21G A49G U55A U127A | ≤ -4.2 |
| U4G A49C | ≤ -4.2 |
| U4C A40G G84U C96U U151A | ≤ -4.2 |
| C5G C10G A20U A23C A40U A41C U53A G70U C87A U148A | ≤ -4.2 |
| C5U A28C C38U G74C A115U | ≤ -4.2 |
| C5U A12U C85G C103A G143C | ≤ -4.2 |
| C5A C38U G50A A60G C95A C103U G126U | -3.13 |
| U4A A23U C35U G46A G84U C103U U139A | ≤ -4.2 |

| Variant | polymerase ribozyme fitness (log ratio) |
| --- | --- |
| C5A C57U C85U | 0.39 |
| C5U A24C C79A G84A U104A A142G | ≤ -4.2 |
| U4G C5G U33G U101C A150C | ≤ -4.2 |
| C5G A73U G124A | -1.49 |
| U4C U53A G92C C114A A120G | ≤ -4.2 |
| C5A C38U A66C C72U C79A C96A G117A | ≤ -4.2 |
| U4C U15G U77A G92U C99G | ≤ -4.2 |
| U4A G65A C85U A97U | -2.2 |
| U4G U13G U44G C75U G86A A91G C93A C131U | ≤ -4.2 |
| U4C C5U A12C G25C A40U G58C G133U | ≤ -4.2 |
| U4C C10G A26G C27G G81U G88U C93U A115G U139G G141U A142C U145C | ≤ -4.2 |
| C5A C8U A37U G58C G67C G88U G128A | ≤ -4.2 |
| C5G A39C A64G C79G C103G G141U | ≤ -4.2 |
| U4A G50A U82G U134C | -2.39 |
| C5G C87U | -0.787 |
| C5A A21U G50A C85A C96A C118G G133C C149U | ≤ -4.2 |
| U4A U9G C85A | ≤ -4.2 |
| U4A A30U U55G G65U C76U C96U G141U | ≤ -4.2 |
| U4C | 0.371 |
| U4G A30G A39U A60G C87U U104A A106U | ≤ -4.2 |
| U4C A19U G65A G83U C87A U127A | ≤ -4.2 |

Reference: the RNAGym collection of RNA variant scans (doi:10.1073/pnas.2313332121)
